# Measured values as given in PubChem BioAssay AID624418 (National Center for Advancing Translational Sciences (NCATS), 2012).
# About 530 (0.13%) of roughly 410,000 compounds were called active. This list was built around the results that the source calls inconclusive (neither active nor inactive); the mix of calls is not that of the screen. The call rests on the fitted dose curve; in most records, active means well fitted inhibition curve with a large enough effect; inconclusive means small, poorly fitted or top-dose-only effect, or another doubt; inactive means no such curve, though single readings can be large or run the other way. Potencies beside an inconclusive call are fits to weak or partial responses and may not hold up.
# Experiment: qHTS of GLP-1 Receptor Inverse Agonists: Cytotox Screen
# Conditions: HEK293 cAMP-luciferase reporter cells, luminescence, 24 h; activity change, negative = inhibition: at 38.3 µM (top of the series) unless noted
# Summary of the method: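 Cells in DMEM/10% Nu serum/1% pen-strep, 1536-well format. Pre-incubated 12 h, dosed with 23 nL compound, incubated a further 24 h. Luciferase detection, 12 min at room temp, luminescence.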
# On the % scale 0 is the no-effect control and ±100 the full control effect; potency means the concentration at half of the fitted maximal effect.
Compound,Potency,"activity change, negative = inhibition"
O=C(CCl)N1c2ccccc2SCC1c1ccccc1 (stereo not drawn),"inconclusive: 12.6 µM [inhibitor, single point]",
C(CCCN1CCCCC1)CCN1CCCCC1,"inconclusive: 20 µM [inhibitor, single point]",
Oc1c(Br)cc(/C=N/Nc2nncc3ccccc23)cc1Br,inactive,
O=C(NC(=S)Nc1cccc(Cl)c1N1CCCCC1)c1ccco1,"inconclusive: 10 µM [inhibitor, partial curve, poor fit]",
O=C(Nc1nc(-c2ccc(S(=O)(=O)N3CCCCCC3)cc2)cs1)c1ccccc1,inactive,
COc1ccc(N(C(=O)CCl)C(C(=O)NCCc2ccccc2)c2cccs2)cc1 (stereo not drawn),"inconclusive: 22.4 µM [inhibitor, partial curve, poor fit]",
COC(=O)C1=C(C)N(Cc2ccccc2)C(=NCCc2ccccn2)N[C@H]1c1cccc(C(F)(F)F)c1,"inconclusive: 28.2 µM [inhibitor, single point]",
CC(CNC(=O)Cn1c(-c2cccs2)cc2cc(Cl)ccc21)c1ccccc1 (stereo not drawn),inactive,
CC(C)(C)C1CCC(OCC(O)CN2CCN(Cc3ccccc3)CC2)CC1 (stereo not drawn),"inconclusive: 28.2 µM [inhibitor, single point]",
O=[N+]([O-])c1cc(-c2csc(NCCc3nc4cc(Cl)c(Cl)cc4n3CCCO)n2)ccc1Cl,"inconclusive: 14.1 µM [inhibitor, single point]",
Cc1c(C(=O)OCC(=O)NCc2ccco2)oc2ccccc12,"inconclusive: 8.91 µM [inhibitor, partial curve, poor fit]",
O=C(Nc1ccc(N2CCOCC2)nc1)c1ccc(C(F)(F)F)cc1,"inconclusive: 31.6 µM [inhibitor, partial curve, poor fit]",
CCCCCCCCCCOC(=O)Cn1c(COc2cccc(OC)c2)[n+](C)c2ccccc21,"inconclusive: 12.6 µM [inhibitor, single point]",
O=C(NC(=S)NCc1ccc(Cl)cc1Cl)c1ccco1,"inconclusive: 28.2 µM [inhibitor, single point]",
COc1cccc(C(=O)NCCc2sc(-c3cccc(C)c3)nc2C)c1,inactive,
COCCOC(=O)C1=C(C)NC(=S)NC1c1ccc(OCC(=O)N2CC(C)OC(C)C2)c(OC)c1 (stereo not drawn),inactive,
Nc1c(S(=O)(=O)c2cccs2)c2nc3ccccc3nc2n1Cc1ccccc1,inactive,
CCc1cccc2c(C(=O)COC(=O)c3c(C)noc3C)c[nH]c12,"inconclusive: 7.94 µM [inhibitor, partial curve, poor fit]",
COc1ccc(/C=C/C(=O)NC(=S)N2CCN(c3ccccn3)CC2)cc1,"inconclusive: 22.4 µM [inhibitor, single point]",
CC(N=c1ccccn1C(=O)Nc1ccc(F)cc1)c1ccco1 (stereo not drawn),inactive,
O=C(NCc1ccccc1)c1ccc(Br)o1,inactive,
COc1ccc(-n2c(-c3ccc(Cl)cc3)c[nH]c2=S)cc1,inactive,
COc1ccc(CNCCC(c2ccc(OC(C)C)cc2)c2ccccc2OC)cc1 (stereo not drawn),"inconclusive: 28.2 µM [inhibitor, single point]",

Compound,Potency,"activity change, negative = inhibition"
Cc1cc(N/N=C/c2ccc(F)cc2)nc(NCc2ccccc2)n1,"inconclusive: 11.2 µM [inhibitor, partial curve, poor fit]",
COC(=O)c1ccccc1NC(=O)Cn1cc2c(n1)CCC(C)C2 (stereo not drawn),inactive,
CN(C(=O)CSc1cccc[n+]1[O-])C1CCCCC1,"inconclusive: 28.2 µM [inhibitor, single point]",
COc1ccc(C(=O)n2c(-c3ccco3)nc3ccccc32)cc1,"inconclusive: 4.47 µM [inhibitor, partial curve]",
O=C(/C=C/NNC(=O)c1ccccc1)c1ccc(Br)cc1,"inconclusive: 3.98 µM [inhibitor, full curve, poor fit]",
C#CCN(C[C@@H]1[C@@H](OC(=O)NCc2ccccc2F)[C@@H](OC(=O)NCc2ccccc2F)Cn2c(=O)ccc(=O)n21)S(=O)(=O)c1ccc(C)cc1,"inconclusive: 10 µM [inhibitor, partial curve, poor fit]",
Cc1cnc(CN2CCc3c([nH]c4ccccc34)C2CC(C)C)[nH]1 (stereo not drawn),inactive,
O=C(O)c1cc(-c2ccc(Br)s2)nc2ccccc12,inactive,
Cc1c(-c2nc3ccccc3[nH]2)cnn1C,inactive,
COc1ccc(-c2csc3ncnc(Nc4cccc(F)c4)c23)cc1,inactive,
CCN(c1ccc(NC(=O)COC(=O)/C=C/c2ccco2)cc1)C(C)C,"inconclusive: 14.1 µM [inhibitor, single point]",
N/C(=N\OC(=O)/C=C/c1ccc(Br)cc1)c1ccccn1,"inconclusive: 14.1 µM [inhibitor, partial curve, poor fit]",
Cc1cccc(C(=O)n2c(=S)nc3cc(C)ccn32)c1,"inconclusive: 31.6 µM [inhibitor, single point]",
CNC[C@@H]1Oc2ccc(NS(=O)(=O)c3ccc(OC)cc3)cc2CC(=O)N([C@H](C)CO)C[C@@H]1C,"inconclusive: 31.6 µM [inhibitor, single point]",
CSc1cnc2c(=O)n(C)c(=O)[nH]c2n1,inactive,
CC(=O)N(C)c1ccc(N=Cc2c(O)ccc3ccccc23)cc1,inactive,
CCCCC(O)(c1ccc(CC)cc1)C(CN1CCOCC1)c1ccccc1 (stereo not drawn),"inconclusive: 12.6 µM [inhibitor, single point]",
CC(=O)OCCN(C)c1cc(SC(C)C)c2nonc2c1[N+](=O)[O-],,inactive: -8.89% [at 0.307 µM]
CCN(CC)C(=O)CSc1nc2c(sc(=S)n2Cc2ccco2)c(=O)n1-c1ccccc1,"inconclusive: 0.794 µM [inhibitor, full curve, poor fit]",
CCN(CC)C(=O)c1ccc2c3c(cccc13)C(=O)N(CCc1ccc(OC)c(OC)c1)C2=O,"inconclusive: 28.2 µM [inhibitor, single point]",
CC(CC(=O)O)CC(=O)NNC(=O)c1cccc(Br)c1 (stereo not drawn),"inconclusive: 28.2 µM [inhibitor, single point]",
COc1ccc(CN(C)CC(=O)Nc2ccccc2-c2ccccc2)c(OC)c1,"inconclusive: 10 µM [inhibitor, partial curve, poor fit]",
CCOC(=O)CSC1=NC(=O)/C(=C/c2ccc(OC)cc2)S1,"inconclusive: 14.1 µM [inhibitor, single point]",

Compound,Potency,"activity change, negative = inhibition"
CCOc1ccc2nc(NC3=NC(c4ccc(OC)cc4)CC(=O)N3)nc(C)c2c1 (stereo not drawn),"inconclusive: 28.2 µM [inhibitor, single point]",
COc1ccc(C(=O)NC2CCN(C(=S)Nc3cc(C)ccc3C)CC2)cc1,"inconclusive: 1.41 µM [inhibitor, full curve, poor fit]",
Cc1ccc(/C=N/Nc2ccccn2)s1,"inconclusive: 0.501 µM [inhibitor, full curve, poor fit]",
COc1ccc(CCNC(=O)c2ccccc2NS(=O)(=O)c2c(F)cccc2F)cc1,inactive,
Cc1ccc(CNC(=O)CCCCCn2c(=O)c3sccc3n(CC(=O)N3CCCCC3C)c2=O)cc1 (stereo not drawn),inactive,
CN(NC(=O)c1ccccc1)c1nc2ccccc2nc1C(F)(F)F,"inconclusive: 11.2 µM [inhibitor, partial curve, poor fit]",
CCNC(=S)N/N=C(\C)c1cccc(C(F)(F)F)c1,active: 4.47 µM,
FC(F)(F)c1cc(-c2ccco2)nc(NCc2ccc(Cl)cc2)n1,"inconclusive: 12.6 µM [inhibitor, single point]",
Cc1cc(C)nc(SC2CC(=O)N(c3ccc(Br)cc3)C2=O)n1 (stereo not drawn),"inconclusive: 28.2 µM [inhibitor, single point]",
Cc1ccccc1NC(=O)c1c(C)oc2ccc(O)c(CN3CCCCCC3)c12,inactive,
FC(F)(F)c1cccc(Nc2nc3nonc3nc2Nc2ccc(Cl)cc2)c1,"inconclusive: 3.16 µM [inhibitor, partial curve, poor fit]",
Cn1c(=O)c2cc(NC(=O)OCCF)ccc2n1Cc1cccc(C(F)(F)F)c1,inactive,
CN(C)c1ccc(Nc2ccc([N+](=O)[O-])cn2)cc1,"inconclusive: 3.98 µM [inhibitor, partial curve, poor fit]",
S=C(Nc1ccc(Oc2ccccc2)cc1)NC1CCCCCC1,"inconclusive: 11.2 µM [inhibitor, partial curve, poor fit]",
O=C(Nc1ccc(Cl)cc1)ON=C1CCCC1,"inconclusive: 28.2 µM [inhibitor, single point]",
CC(C)c1ccccc1NC(=O)CCc1nc2ccccc2s1,"inconclusive: 28.2 µM [inhibitor, single point]",
CNC(=S)N/N=C/c1c(C)nn(-c2cccc(Cl)c2)c1Cl,"inconclusive: 5.62 µM [inhibitor, partial curve, poor fit]",
COc1ccc(-c2cc3nc(C)c(CCC(=O)NCc4ccc(F)cc4)c(C)n3n2)c(OC)c1,"inconclusive: 28.2 µM [inhibitor, single point]",
CN(C)Cc1cc(C(F)(F)F)ccc1C(O)(c1ccccc1)c1ccccc1,"inconclusive: 28.2 µM [inhibitor, single point]",
COc1cc2c(cc1OC)C(SC)=NC1(CCCC1)C2,"inconclusive: 11.2 µM [inhibitor, single point]",
Cc1ccc(S(=O)(=O)/N=C2/C=C(Sc3ncn[nH]3)C(=O)c3ccccc32)cc1,"inconclusive: 12.6 µM [inhibitor, single point]",
S=C(NCCCc1ccccc1)Nc1ccc(Cl)cc1,"inconclusive: 12.6 µM [inhibitor, single point]",
